Our source for the activation values is PubChem BioAssay AID1346428 (National Center for Advancing Translational Sciences (NCATS), 2018).

“And” between values parts separate entries of the source, which are not always exact repeats. Equal values may be shown once. Out of some 48,000 compounds screened, about 1,200 (2.5%) were called active. About 2% were inconclusive and are not listed.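 The calls were made as follows: active = activation of at least 60% and not above a set upper limit (about 1 call in 100 departs from these limits); inconclusive = activation of 40% to 60%, or above that upper limit; inactive = activation under 40%.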 This is one part of the list.

Chain of UniProt O75388 (O75388 whole entry, looked up): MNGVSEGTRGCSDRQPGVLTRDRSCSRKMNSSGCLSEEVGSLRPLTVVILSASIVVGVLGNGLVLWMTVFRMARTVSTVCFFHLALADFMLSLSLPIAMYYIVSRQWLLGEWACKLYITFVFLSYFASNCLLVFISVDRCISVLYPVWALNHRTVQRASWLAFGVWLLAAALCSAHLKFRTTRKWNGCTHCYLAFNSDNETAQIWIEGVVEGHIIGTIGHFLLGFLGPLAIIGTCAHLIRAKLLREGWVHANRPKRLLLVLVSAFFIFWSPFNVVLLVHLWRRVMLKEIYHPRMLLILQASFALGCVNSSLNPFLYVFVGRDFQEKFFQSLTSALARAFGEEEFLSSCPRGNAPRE

The target of this assay is Probable G-protein coupled receptor 32 (Homo sapiens) (UniProt O75388). The assay can be described thus: qHTS for Agonists of Human Resolvin D1 Receptor DRV1. Also: 0% is about no effect. To be noted: CHO-K1 GPR32 beta-arrestin PathHunter luminescence, 90 min; at 76.9 µM; active compounds read high; zero percent set by DMSO-only wells. The gist of the method:
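PathHunter beta-arrestin recruitment in CHO-K1 cells stably expressing ProLink-tagged GPR32. Cells were exposed to compound for 90 min at 37 C, then chemiluminescence was read after 1 h detection at ambient temperature; DMSO served as basal control.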
(qHTS replaces the single test concentration by a dilution series.)
As to `COc1ccc(CNC(=O)c2cc3sccc3n2Cc2ccc(C)cc2)cc1`, the activation was inactive: -4.81%.
Under `NC(=O)CNCCC(c1ccccc1)c1ccccc1` stands inactive: -0.686%.
Take `O=C(NCCN1CCCCC1)c1ccc(Cn2c(SCc3ccccc3)nc3cccnc32)cc1`: the activation was inactive: -10.1%.
For the molecule `COCCCn1c(-c2ccc(S(=O)(=O)N3CCOCC3)cc2)csc1=Nc1ccccc1`, the activation is inactive: -49.9%.
Under `CC1(c2ccc(Cl)cc2)CC(C)(C)N(C(=O)c2cccc(F)c2)c2ccccc21` (stereo not drawn) stands inactive: -20.3%; under `O=C(Cc1ccccc1)Nc1sc2c(c1C(=O)Nc1ccc(Br)cc1)CCCC2`, inactive: -15.9%.
As for `CC(=O)c1ccc(NS(=O)(=O)c2ccc(-n3cccn3)cc2)cc1`, the activation was inactive: -4.81%.
In the case of `Cc1ccc(C(=O)NC2(C(F)(F)F)N=C(c3ccccc3)N(Cc3ccccc3)C2=O)cc1` (stereo not drawn), the activation was inactive: -3.69%.
Under `Cc1ccc(C(=O)Oc2cc(-c3ccc4c(c3)OCO4)cc(=O)c3c(C)oc(C)c23)cc1` stands inactive: -6.35%.
As to `CCc1c(C)[nH]c2c1C(=O)C(CN1CCOCC1)CC2` (stereo not drawn), the activation is inactive: 5.51% and inactive: 3.65%.
Turning to `Cc1ccc(NC(=O)C2CCN(c3nc(-c4ccc(C(C)C)cc4)no3)CC2)c(Cl)c1`, the activation was inactive: -9.11%.
With `Cc1ccccc1NC(=O)CSc1nc(-c2ccco2)nc2cc(=O)[nH]n12`, the activation is inactive: -3.2%.
Consider `O=C(c1ccc2c(c1)N(Cc1ccc(Cl)cc1)C(=O)c1ccccc1S2=O)N1CCCCC1` (stereo not drawn), for which the activation was inactive: 11.1%.
In the case of `COc1ccccc1NC(=O)Cn1c(=O)n(CC(=O)NCc2ccccc2Cl)c(=O)c2sccc21`, the activation was inactive: 6.35%.
In the case of `COc1ccc(C(=O)Oc2c(Sc3ccc(C)cc3)c(C)nn2C(C)(C)C)cc1OC`, the activation is inactive: -7.14%.
Consider `CCOc1ccc(CNC(=O)c2cc(-c3ccc(Cl)s3)nc3ccccc23)cc1`, for which the activation is inactive: -4.71%.
For the molecule `CCOC(=O)C1CCN(C(c2ccc(C)cc2)c2c(O)cc(C)n(CCOC)c2=O)CC1` (stereo not drawn), the activation is inactive: -15.1%.
Regarding `Cc1ccc(NC(=O)Cn2cc(C(=O)C3CCCCC3)c3ccccc32)cc1`, the activation was inactive: -12.9%.
On to `CCOc1ccc(-c2cc(CCCC(=O)NCCc3cc(OC)c(OC)c(OC)c3)no2)cc1`, for which the activation was active: 72.4%.
Take `Cc1cccc(NC(=O)CCNS(=O)(=O)c2ccc3c(c2)CCN3C(=O)C2CC2)c1`: the activation was inactive: 5.21%.
To `CCO/C([O-])=N/c1c[n+](N2CCOCC2)no1` belongs inactive: -1.76% and inactive: -0.877%; to `Nc1ccc(O)c([N+](=O)[O-])c1`, inactive: -99.9%.
Turning to `COc1ccc(CCNC(=O)CCCn2nc(C)c3sc4ccccc4c3c2=O)c(OC)c1`, the activation is inactive: -14.2%.
Under `CCOc1ccc(NC(=O)Cn2c(=O)n(CCCS(=O)(=O)C3CCCCC3)c(=O)c3ccccc32)cc1` stands inactive: -11.1%.
For `Cc1ccc(NC(=O)C2CCC(CNS(=O)(=O)c3cccc4nsnc34)CC2)c(Cl)c1` (stereo not drawn), the activation was inactive: 5.49%.
For the molecule `Cc1ccc(C(=O)Nc2ccccc2)cc1S(=O)(=O)Nc1ccccc1`, the activation is active: 94.8%.
To `COC(=O)c1c(C)oc2ccc(N(C(=O)c3ccncc3)S(=O)(=O)c3cc(C)ccc3C)cc12` belongs inactive: 20.1%; to `COc1ccc(N2CCN(C(=O)C3CCN(S(=O)(=O)c4cn(C)cn4)CC3)CC2)cc1`, inactive: -20.3%.
Consider `Cc1ccc(OC(=O)CSc2nnc(-c3ccc4c(c3)OCO4)o2)cc1`, for which the activation was inactive: -2.33%.
Take `Cc1ccc(-n2ncc3c(N4CCC(Cc5ccccc5)CC4)ncnc32)cc1C`: the activation is inactive: 15%.
Turning to `Cc1cccc(N(C)C(=O)Cc2c(C(=O)O)[nH]c3ccccc23)c1`, the activation is inactive: 6.06%.
As for `O=C(OCC1CCCO1)c1ccc2c(c1)N(Cc1ccccc1)C(=O)c1ccccc1S2(=O)=O` (stereo not drawn), the activation is inactive: -7.07%.
To `CCc1ccccc1NC(=O)CN1C(=O)CCSc2ccc(S(=O)(=O)N3CCCC3)cc21` belongs inactive: -14.2%.
With `CCN(CC)S(=O)(=O)c1ccc2c(c1)nc(CN(C)C(=O)Nc1ccc(C)c(F)c1)n2C`, the activation is inactive: -1.5%.
To `CCOC(=O)C1CCCN(C(=O)Cn2ncc3c4ccccc4n(Cc4ccccc4)c3c2=O)C1` (stereo not drawn) belongs inactive: -9.02%; to `COC(=O)c1ccc(CSc2nc3c([nH]c4ccccc43)c(=O)n2-c2cccc(Cl)c2)o1`, inactive: -6.4%; to `CCc1ccccc1NC(=O)C(C)n1c(=O)cc(C)c2c(C)nn(-c3ccccc3)c21` (stereo not drawn), inactive: -17.3%.
Regarding `O=[N+]([O-])c1cncn1CCN1CCOCC1`, the activation is inactive: -11.9%.
As for `COc1ccc(N2CCN(C(=O)COCc3cc(-c4ccc5c(c4)OCO5)on3)CC2)cc1`, the activation was inactive: -24.5%.
With `COc1ccccc1NC(=O)c1cc2c(C)nn(-c3ccccc3)c2s1`, the activation is inactive: -5.06%.
Regarding `Cc1ccc(NC(=O)c2nc(S(C)(=O)=O)ncc2N(Cc2ccco2)Cc2cccs2)cc1C`, the activation is inactive: -18.5%.
For `COc1ccc(NC(=O)c2sc3nc(C(F)(F)F)cc(C)c3c2N)cc1OC`, the activation is inactive: 3.52%.
As to `Cc1cc(C)cc(Oc2nc3ccccn3c(=O)c2/C=C(\C#N)c2nc3ccccc3s2)c1`, the activation is inactive: -9.22%.
`O=C(NC1CCN(Cc2ccccc2)CC1)c1ccc(Cn2c(=O)c3ccccc3n(Cc3ccc(F)cc3)c2=O)cc1`: the activation is inactive: -16.4%.
As for `CCn1nc(-c2ccccc2)c(-c2ccccc2)c(C(=O)Nc2ccc(NC(C)=O)cc2)c1=O`, the activation is inactive: -3.62%.
To `Cn1c(=O)cc(SCC(=O)N2CCN(c3ccccc3F)CC2)c2ccc(Cl)cc21` belongs inactive: 7.63%; to `Cc1ccccc1OCCSc1nc2ccc(NC(=O)c3cccs3)cc2s1`, inactive: 8.52%; to `COCCCNC(=O)CSc1nc2cc3c(cc2c(=O)n1CCCC(=O)NCc1ccc2c(c1)OCO2)OCO3`, inactive: -10.8%.
Regarding `COc1ccc(OC)c(NC(=O)Nc2c(C)n(C)n(-c3ccccc3)c2=O)c1`, the activation is inactive: 0.701%.
In the case of `Cc1ccc(Cn2ccnc2SCC(=O)Nc2nnc(C)s2)cc1`, the activation is inactive: -13.1%.
Under `Cc1ccc(-c2csc(=Nc3ccccc3)n2Cc2ccc3c(c2)OCO3)cc1` stands inactive: 32.6%; under `O=C(CN(c1ccc(Cl)c(C(F)(F)F)c1)S(=O)(=O)c1ccccc1)Nc1cccnc1`, inactive: 35.5%; under `CCc1ccccc1NC(=O)CSc1nnc(-c2ccccc2)c(-c2ccccc2)n1`, inactive: -17.7%.
To `COc1cc(OC)cc(-c2cc3nc(C)c(CCC(=O)Nc4ccccc4OC)c(C)n3n2)c1` belongs inactive: -3.22%; to `COCCNC(=O)Cn1c(=O)c2cccn2c2ccc(F)cc21`, inactive: -14.8%.
With `Cc1ccccc1C(=O)Nc1c(C(=O)Nc2cccc(F)c2)oc2ccccc12`, the activation is inactive: 0.197%.
With `CCc1nnc(NC(=O)c2nc(SC)ncc2Cl)s1`, the activation is inactive: -1%.
`NC(=O)CSc1nc2c(oc3ccccc32)c(=O)n1Cc1ccccc1`: the activation was inactive: -8.72%.
As to `CCSc1oc(-c2cccs2)nc1S(=O)(=O)c1ccc(Br)cc1`, the activation is inactive: -18.3%.
Regarding `OC[C@]1(O)OC[C@@H](O)[C@H](O)[C@@H]1O`, the activation was inactive: -5.95%.
Take `C[C@@H]1CCC[C@H](C)N1CCCC(O)(c1ccccc1)c1ccccn1` (stereo partly drawn): the activation is inactive: -5.87%.
For the molecule `CCOC(=O)c1c(-c2ccccc2)oc2ccc(N(C(C)=O)S(=O)(=O)c3ccccc3)cc12`, the activation was inactive: -5.84%.
Consider `O=C(NCc1ccc2c(c1)OCO2)c1ccc2c(c1)N(Cc1ccccc1F)C(=O)c1ccccc1S2=O` (stereo not drawn), for which the activation is inactive: -26.5%.
As for `CCOc1ccc(Cn2nnc(C(=O)Nc3ccc(Cl)cc3)c2N)cc1`, the activation was inactive: -0.209%.
In the case of `O=S(=O)(NCC(c1ccco1)N1CCN(c2ccccc2)CC1)c1ccccc1` (stereo not drawn), the activation was inactive: -33.8%.
To `CCCN(C(=O)c1c(C)oc2ncnc(N3CCOCC3)c12)c1ccc(Cl)c(Cl)c1` belongs inactive: -6.85%.
As to `Cc1cccn2c3c(c(=O)nc12)C(c1ccc(F)cc1)CC(=O)N3` (stereo not drawn), the activation is inactive: -6.19%.
With `CCn1ccc2c(OCC(=O)Nc3ccc(C(C)=O)cc3)cccc2c1=O`, the activation was inactive: -6.7%.
Regarding `COc1ccccc1CNC(=O)c1cc2c(-c3ccc(Cl)cc3)nn(C)c2s1`, the activation was inactive: -10.6%.
Regarding `CN(C1CCCCC1)S(=O)(=O)c1ccc2c(c1)c(=O)c(C(=O)NCc1ccc(F)cc1)cn2C`, the activation is inactive: -10.7%.
As for `COc1ccccc1CNC(=O)C1CCN(C(=O)c2sccc2-n2cccc2)CC1`, the activation was inactive: -15.5%.
`COC(=O)c1cc2occc2n1CC(=O)Nc1ccc(C)cc1Cl`: the activation was inactive: -0.909%.
In the case of `CCOc1ccc(-c2nc(CSCC(=O)NCc3ccc(C)cc3)c(C)o2)cc1`, the activation was inactive: -9.45%.
With `COC(=O)c1cc(NC(=O)c2sc3ccccc3c2Cl)cc(C(=O)OC)c1`, the activation is inactive: -3.8%.
Under `COc1ccc(CCNc2nc3cc(OC)c(OC)cc3c3nc(-c4ccccc4)nn23)cc1OC` stands inactive: -0.774%; under `COc1ccc(-c2nn(-c3ccc(C)cc3)c3c2cnc2ccc(C)cc23)cc1OC`, inactive: -3.98%.
For `Cc1ccc(C)c(-n2nnc(-c3nc(-c4ccccc4C)no3)c2C)c1`, the activation is inactive: -5.13%.
Turning to `N[C@@H](CCC(=O)N[C@@H](CS)C(=O)NCC(=O)O)C(=O)O`, the activation was inactive: -56.9%.
`COc1cccc(NC(=O)c2cc3c(-c4ccc(Cl)cc4)nn(C)c3s2)c1`: the activation was inactive: -5.94%.
For the molecule `CC1=C(C(=O)O)N2C(=O)[C@@H](NC(=O)[C@H](N)C3=CCC=CC3)[C@H]2SC1`, the activation was inactive: -29.3%.
Take `CCCN1CCN(CCCNC(=O)C(CC)n2nc(C)n3c(cc4occc43)c2=O)CC1` (stereo not drawn): the activation is inactive: -9.96%.
`Cc1coc2cc3oc(=O)c(CCC(=O)NCc4ccccc4Cl)c(C)c3cc12`: the activation was inactive: 5.02%.
To `O=C(O)c1cccc(-n2cnc3cccnc32)c1` belongs inactive: -2.2%.
